Laboratory results from PubChem BioAssay (NCATS).
Several values for one entry are separate records, joined by “and”; a condition that tells them apart may be missing. Equal values may be shown once. Inconclusive results, whose numbers are uncertain, are shown with a selection of clear calls. For part of these data: Where the call is inconclusive, the potency comes from a doubtful curve fit. Activity calls are given as the source filed them. Unless noted, calls follow the shape of the dose curve; as a rule, active = well fitted curve in the direction sought with a large enough effect; inconclusive = small, poorly fitted or top-dose-only effect, or another doubt; inactive = no such curve, though single readings can be large; an effect the other way counts as inactive or inconclusive.

How the values were obtained:
[1] = qHTS of pediatric cancer cell lines to identify multiple opportunities for drug repurposing: Primary screen for DAOY cells (AID 1347090); settings: DAOY medulloblastoma viability, CellTiter-Glo luminescence, 48 h; activity change, negative = cytotoxic: at 46 µM (top of the series); also: nearly all actives have a fitted effect of over 55% in size;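 as to activity change, negative = cytotoxic: plate controls were DMSO for no effect and bortezomib for full effect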
Method in brief: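 Cell viability, CellTiter-Glo luminescence; 500-1,000 cells/well, 8- or 11-point titration, 48 h compound exposure at 37 degrees C, 5% CO2. Controls: DMSO neutral, bortezomib 2.3 µM final as positive.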

[2] = qHTS of pediatric cancer cell lines to identify multiple opportunities for drug repurposing: Primary screen for BT-12 cells (AID 1347101); also: nearly all actives have a fitted effect of over 25% in size;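 as to activity change, negative = cytotoxic: plate controls were DMSO for no effect and bortezomib positive control for full effect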
Method in brief: (§1)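 Cells (500-1,000/well) rested 5 h, then received compounds for 48 h; metabolically active cells were measured by CellTiter-Glo luminescence. Final concentrations spanned up to 46 µM (MIPE, 11-point) or 0.59 nM-46 µM (NPC, 8-point) in primary screens, 11-point in follow-ups.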

[3] = Primary qHTS for small molecule stabilizers of the endoplasmic reticulum resident proteome: Secreted ER Calcium Modulated Protein (SERCaMP) assay (AID 1508630); settings: SH-SY5Y GLuc-SERCaMP (Gaussia luciferase released on ER calcium loss) secretion, thapsigargin, luminescence; activity change, negative = inhibition: at 38.4 µM (top of the series) unless noted; as to activity change, negative = inhibition: % is scaled to controls: 0 for no effect and ±100 for the full control effect
Method in brief: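 GLuc-SERCaMP-expressing SH-SY5Y cells, pretreated 16 h with compound, are challenged with thapsigargin to empty ER calcium stores; after 4 h, coelenterazine is added directly to the medium and luminescence is imaged.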

[4] = qHTS of pediatric cancer cell lines to identify multiple opportunities for drug repurposing: Primary screen for BT-37 cells (AID 1347094);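 as to activity change, negative = cytotoxic: plate controls were DMSO for no effect and bortezomib for full effect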
Method in brief: (§2)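 Plated cells (500-1,000 per well, growth media) were allowed to settle for 5 hours, treated with compound dilutions for 48 hours, then lysed with CellTiter-Glo for 15 min at room temperature before luminescence reading.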

JEG-3 = experiment: Primary qHTS to identify gynecologic anti-cancer compounds using libraries of approved drugs and bioactive compounds (AID 1345084); settings: Gynecologic cancer cell panel viability, ATPlite luminescence, 48 h; series mostly up to 57.5 µM; also: nearly all actives have a fitted effect of over 55% in size; as to activity change, negative = cytotoxicity: % is scaled to controls: 0 for no effect and ±100 for the full control effect
Method in brief: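 Five-concentration response, 48 h; readout is ATP-driven luciferase luminescence.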

[5] = NS1 protein of Zika virus - qHTS assay to identify small molecule inhibitors in human HEK 293 cells (AID 1347053); also: nearly all actives have a fitted effect of over 55% in size
Method in brief: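 HEK 293 cells, seeded 20 h at 37 C, were pretreated with compound 1 h, then infected with ZIKV MR766 (MOI = 0.5) for 24 h. NS1 was read by TR-FRET with two anti-NS1 antibodies, normalized to uninfected and infected wells.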

[6] = qHTS of pediatric cancer cell lines to identify multiple opportunities for drug repurposing: Primary screen for SK-N-SH cells (AID 1347098); also: nearly all actives have a fitted effect of over 65% in size
Method in brief: as §1

[7] = Quantitative High-Throughput drug screen in 47 multiple myeloma cell lines against the NCATS MIPE library collection: Karpas417_ECACC cell viability assay (AID 1918961); settings: Karpas417 myeloma viability, CellTiter-Glo ATP luminescence, 48 h; viability (% of DMSO): at 45.8 µM (top of the series)
Method in brief: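 We plated 500 myeloma cells per well, pinned in MIPE 4.0 compounds, and incubated for 48 hours at 37C. ATP was then quantified with CellTiter-Glo, with DMSO and media-only wells defining 100% and 0%.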

[8] = Quantitative High-Throughput drug screen in 47 multiple myeloma cell lines against the NCATS MIPE library collection: KMS20_JCRB cell viability assay (AID 1918973); settings: CellTiter-Glo ATP, 48 h; viability (% of DMSO): at 45.8 µM (top of the series); also: nearly all actives have a fitted effect of over 45% in size
Method in brief: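 qHTS of the MIPE 4.0 collection: 500 myeloma cells/well, 48 h drug exposure at 37C in 5% CO2, then CellTiter-Glo for 5 min at room temperature before luminescence reading.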

[9] = qHTS for identification of novel therapeutic agents for treatment of microphthalmiaassociated transcription factor (MiT) renal cell carcinoma (RCC) (AID 1963991; calls by dose curve); settings: TFE3-RCC UOK109 viability, CellTiter-Glo, 48 h; active = Z-AUC below -0.8 in all three lines
Method in brief: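 Three TFE3-fusion RCC cell lines (UOK109, UOK124, UOK145), 500 cells/well, were exposed to the 1912-compound MIPE 4.0 library for 48 hours at 37 C. Viability was read by CellTiter-Glo luminescence, normalised to DMSO (100%) and empty wells (0%), with 11-concentration curve fits.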

MCC-26 = experiment: qHTS assay to identify novel small-molecules to repurpose for Merkel cell carcinoma treatment (AID 1296009); settings: MCC and control cell lines, CellTiter-Glo viability, 72 h; activity change, negative = cytotoxicity: at 46 µM (top of the series); also: nearly all actives have a fitted effect of over 60% in size; as to activity change, negative = cytotoxicity: % is scaled to controls: 0 for no effect and ±100 for the full control effect
Method in brief: (§3)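 After compound transfer in DMSO, plates were kept 72 hr at 37 degree celsius. Luminescent ATP signal from CellTiter-Glo served as viability measure, normalized against DMSO and no-cell controls.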

WaGa = experiment: as above; settings: MCC and control cell lines, CellTiter-Glo viability, 72 h; series mostly up to 46 µM
Method in brief: as §3

[10] = target: Cytochrome P450 2C9 (Homo sapiens) (UniProt P11712); experiment: Cytochrome P450 family 2 subfamily C member 9 (CYP2C9) small molecule antagonists: luciferase biochemical (cell-free) qHTS assay (AID 1645842; active = well fitted curve in the direction sought with a large enough effect in the repeat runs; inconclusive = weak or mixed curves; inactive = no such curve, though single readings can be large; an effect the other way counts as inactive or inconclusive; also: nearly all actives have a fitted effect of over 55% in size; as to activity change, negative = inhibition: % is scaled to controls: 0 for no effect and ±100 for the full control effect)
Chain of UniProt P11712 (P11712 whole entry, looked up): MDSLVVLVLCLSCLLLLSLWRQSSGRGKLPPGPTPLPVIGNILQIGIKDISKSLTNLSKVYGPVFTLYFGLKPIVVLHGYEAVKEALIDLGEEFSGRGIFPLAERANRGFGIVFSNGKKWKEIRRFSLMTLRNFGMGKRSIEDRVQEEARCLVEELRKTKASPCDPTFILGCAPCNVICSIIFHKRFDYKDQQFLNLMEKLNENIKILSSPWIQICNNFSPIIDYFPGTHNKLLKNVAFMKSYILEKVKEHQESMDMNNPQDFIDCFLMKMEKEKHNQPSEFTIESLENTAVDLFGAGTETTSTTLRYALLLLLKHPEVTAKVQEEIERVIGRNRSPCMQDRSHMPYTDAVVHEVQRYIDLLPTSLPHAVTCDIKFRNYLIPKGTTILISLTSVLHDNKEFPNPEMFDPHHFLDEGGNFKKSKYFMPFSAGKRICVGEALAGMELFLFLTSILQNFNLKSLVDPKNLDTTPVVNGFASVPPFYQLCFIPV
Method in brief: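 Luminescence, after 20 min with luciferin detection reagent, reflected CYP2C9 turnover during a 1 h NADPH-driven reaction at 37C. Enzyme-substrate mix contained 0.4% bovine serum albumin and was preincubated with compound 10 min at room temperature.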

MKL-2 = experiment: qHTS assay to identify novel small-molecules to repurpose for Merkel cell carcinoma treatment (AID 1296009); settings: MCC and control cell lines, CellTiter-Glo viability, 72 h; activity change, negative = cytotoxicity: at 46 µM (top of the series); also: nearly all actives have a fitted effect of over 60% in size
Method in brief: as §3

[11] = qHTS of pediatric cancer cell lines to identify multiple opportunities for drug repurposing: Primary screen for NB-EBc1 cells (AID 1347095);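 as to activity change, negative = cytotoxic: plate controls were DMSO neutral control for no effect and bortezomib for full effect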
Method in brief: as §2

[12] = qHTS of pediatric cancer cell lines to identify multiple opportunities for drug repurposing: Primary screen for LAN-5 cells (AID 1347100)
Method in brief: as §1

[13] = qHTS of pediatric cancer cell lines to identify multiple opportunities for drug repurposing: Primary screen for NB1643 cells (AID 1347099); also: nearly all actives have a fitted effect of over 50% in size
Method in brief: as §2

[14] = qHTS of pediatric cancer cell lines to identify multiple opportunities for drug repurposing: Primary screen for OHS-50 cells (AID 1347103); also: nearly all actives have a fitted effect of over 40% in size
Method in brief: as §1

[15] = qHTS to identify inhibitors of the type 1 interferon - major histocompatibility complex class I in skeletal muscle: primary screen against the NCATS Mechanism Interrogation Plate v5.0 (MIPE) Libary (AID 1347411); settings: iHSKM cells + IFN-b, HiBiT-tagged MHC-I luminescence, 24 h; activity change, negative = inhibition: at 45.8 µM (top of the series); also: nearly all actives have a fitted effect of over 65% in size
Method in brief: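 Cells were genome-edited human myoblasts carrying a HiBit tag on endogenous HLA-B. They were treated with IFN-beta (4.0 ng/ml) and titrated compounds (top 46 uM) for 24 hrs before lytic HiBiT detection.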

[16] = qHTS assay to identify inhibitors of the type 1 interferon - major histocompatibility complex class I in skeletal muscle: Counter screen cell viability and HiBit confirmation (AID 1347412); settings: iHSKM muscle cells + IFN-b, HiBiT or CellTiter-Glo, 24 h; also: nearly all actives have a fitted effect of over 60% in size
Method in brief: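 Luminescence read-out: Nano-Glo HiBiT lytic signal from C-terminally HiBiT-tagged HLA-B in CRISPR-edited human myoblasts, plus CellTiter Glo ATP as viability counter screen. IFN-beta 4.0 ng/ml; 24 hrs treatment at 37 C, 5% CO2.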
Potency is read from the fitted curve at half-maximal effect; tags tell the direction and shape of the fitted curve.

With `CC1(C)OC[C@@H]2O[C@@]3(C(=O)O)OC(C)(C)O[C@H]3[C@@H]2O1` the Potency [1] was “inactive”, the Potency [2] was “inactive” and the Potency [3] was inconclusive: 2.24 µM [inhibitor, full curve, poor fit].
For `O=C(O)CCNC(=O)c1ccccc1`, the Potency [4] was “inactive”, the Potency [2] was “inactive” and the Potency [3] was “inactive”. The Potency (JEG-3) was “inactive”.
In the case of `CCCNC(=O)[C@H]1O[C@H]1C(=O)N[C@H](C(=O)N1CCC[C@@H]1C(=O)OC)C(C)CC` (stereo partly drawn), the Potency [5] was inconclusive: 33.2 µM [inhibitor, single point], the Potency [1] was inconclusive: 18.7 µM [cytotoxic, partial curve] and the Potency [6] was inconclusive: 24.1 µM [cytotoxic, partial curve]. For the same compound, the Potency [2] was inconclusive: 43.2 µM [cytotoxic, single point], the Potency [7] was active: 2.96 µM and the Potency [8] was inconclusive: 20.9 µM [cytotoxic, partial curve, poor fit]. The Potency [9] was inconclusive: 16.6 µM [falling, partial curve, poor fit], the Potency (MCC-26) was inconclusive: 23.5 µM [inhibitor, single point] and the Potency (WaGa) was active: 8.33 µM.
With `OC[C@H]1O[C@@H](Oc2ccc(O)cc2)[C@H](O)[C@@H](O)[C@@H]1O` the Potency [2] was “inactive”, the Potency [10] was “inactive” and the Potency (MKL-2) was “inactive”.
With `O=C(O)C1(Cc2cccc(Nc3nccs3)n2)CCC(Oc2cccc(Cl)c2F)CC1` (stereo not drawn) the Potency [1] was inconclusive: 0.187 µM [cytotoxic, full curve], the Potency [11] was inconclusive: 0.0833 µM [cytotoxic, full curve] and the Potency [6] was inconclusive: 9.61 µM [cytotoxic, partial curve]. For the same compound, the Potency [12] was inconclusive: 0.118 µM [cytotoxic, full curve], the Potency [2] was inconclusive: 3.43 µM [cytotoxic, full curve] and the Potency [7] was inconclusive: 37.2 µM [cytotoxic, single point]. The Potency [8] was inconclusive: 0.0935 µM [cytotoxic, full curve, poor fit], the Potency [9] was inconclusive: 0.935 µM and the Potency (WaGa) was inconclusive: 1.18 µM [inhibitor, full curve].
For `COc1cc(OC)cc(-c2ccc3ncc4ccc(=O)n(-c5ccc(N6CCNCC6)c(C(F)(F)F)c5)c4c3c2)c1`, the Potency [5] was active: 11.8 µM, the Potency [4] was active: 15.3 µM and the Potency [13] was active: 11.8 µM. The Potency [12] was active: 2.64 µM, the Potency [2] was active: 19.3 µM and the Potency [14] was active: 4.32 µM. The Potency [7] was active: 2.35 µM, the Potency [8] was active: 4.18 µM and the Potency [9] was inconclusive: 11.8 µM [falling, partial curve]. The Potency (MCC-26) was inconclusive: 26.4 µM [inhibitor, partial curve] and the Potency (MKL-2) was active: 8.33 µM.
For `Cc1ccc([N+](=O)[O-])cc1S(=O)(=O)N(C)N=Cc1cnc2ccc(Br)cn12`, the Potency [5] was active: 0.118 µM, the Potency [4] was active: 0.0385 µM and the Potency [13] was active: 0.0042 µM. For the same compound, the viability (% of DMSO) [8] was inconclusive: 6.91% [cytotoxic], the Potency [9] was active: 0.0235 µM and the Potency (MCC-26) was inconclusive: 0.0833 µM [inhibitor, full curve]. The Potency (WaGa) was inconclusive: 0.0526 µM [inhibitor, full curve].
In the case of `Cc1c(-c2ccnn2C)cc(C(=O)NCc2ccc(S(C)(=O)=O)cn2)c(=O)n1-c1cccc(C(F)(F)F)c1`, the Potency [10] was inconclusive: 9.52 µM [inhibitor, partial curve] and inconclusive: 10.7 µM [inhibitor, partial curve] and inconclusive: 13.5 µM [inhibitor, partial curve].
In the case of `Nc1nc(-n2cc(C(=O)O)c(=O)c3cc(F)c(N4CC(O)C4)c(Cl)c32)c(F)cc1F`, the Potency [10] was inconclusive: 16.6 µM [inhibitor, partial curve, poor fit].
For `NC(=O)c1cnc(N[C@@H]2CCCC[C@@H]2N)nc1Nc1cccc(-n2nccn2)c1`, the Potency [15] was active: 13.1 µM, the Potency ([16]; HiBiT) was inconclusive: 11.1 µM [inhibitor, partial curve] and the activity change, negative = inhibition ([16]; Viability, at 45.9 µM (top of the series)) was inactive: -17.1%.
For `CC(=O)Oc1ccc(C)cc1`, the Potency [6] was “inactive”, the activity change, negative = inhibition [3] was inconclusive: -34% [inhibitor] and the Potency (WaGa) was “inactive”.
In the case of `COc1ccc2[nH]c3c(-c4cccc5ccccc45)nccc3c2c1`, the Potency (JEG-3) was inconclusive: 2.24 µM [cytotoxic, partial curve, poor fit].
With `Cc1nc(-c2cn3c(n2)-c2ccc(-c4cnn(C(C)(C)C(N)=O)c4)cc2OCC3)n(C(C)C)n1` the Potency [15] was inconclusive: 0.262 µM [inhibitor, full curve, poor fit], the Potency [10] was inconclusive: 23.9 µM [inhibitor, single point] and the Potency (JEG-3) was inconclusive: 3.16 µM [cytotoxic, partial curve, poor fit]. The Potency ([16]; HiBiT) was inconclusive: 0.313 µM [inhibitor, full curve, poor fit] and the Potency ([16]; Viability) was inconclusive: 0.991 µM [cytotoxic, full curve, poor fit].
In the case of `NC(N)=NCCN1CCCCCCC1`, the activity change, negative = cytotoxic [11] was inactive: 19.5% [at 0.597 µM], the activity change, negative = cytotoxic [6] was inactive: -2% [at 0.741 µM] and the Potency [3] was inconclusive: 0.398 µM [inhibitor, partial curve].
